PubChem BioAssay AID1347073 (National Center for Advancing Translational Sciences (NCATS), 2019)
Out of some 45,000 compounds screened, about 200 (0.44%) were called active. Roughly 7% stayed inconclusive and do not appear here. Calls come from the whole dose curve; as a rule, active = well fitted activation curve with a large enough effect; inconclusive = small, poorly fitted or top-dose-only effect; inactive = no such curve, though single readings can be large or run the other way. This is one part of the list.

Assay: qHTS of TDP-43 Inhibitors: NCGC Sytravon Library Screen; note: 0% is about no effect; nearly all actives have a fitted effect of over 55% in size
Conditions: yeast TDP-43 toxicity rescue, BacTiter-Glo growth, 24 h; series mostly up to 46.1 µM; growth rescue (activation): at the top concentration
Summary of the method: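 TDP-43-expressing yeast, pregrown in raffinose, seeded at OD600 0.02 in galactose medium with compound for 24 hr at 30 deg C. Growth read by BacTiter-Glo luminescence, so rescue of toxicity appears as activation.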

Row | SMILES | growth rescue (activation)
1 | Cc1csc(NC(=O)CSc2nc3[nH]c(=O)cc(O)c3s2)n1 | inactive: -1.11%
2 | COc1cc(NC(=O)CSc2nccc(C)n2)c(C)cc1[N+](=O)[O-] | inactive: 22.2%
3 | Cc1cccc(NC(=O)C(C)Sc2nc3nc(C)cc(C)n3n2)c1 (stereo not drawn) | inactive: 10.5%
4 | CN(CCOc1ccccc1)C(=O)c1ccc(OC2CCN(C(=O)C3CC3)CC2)cc1 | inactive: 13.8%
5 | O=C(COC(=O)/C=C/c1cccc(C(F)(F)F)c1)NC(=O)NC1CCCC1 | inactive: 17.2%
6 | Cc1ccc(N(CC(=O)NC2CCCC2)C(=O)CNC(=O)c2cccs2)cc1F | inactive: 2.56%
7 | O=C(CNC(=O)c1ccccc1)NCCCSc1ccccc1 | inactive: -0.129%
8 | O=C(NCc1ccco1)C1CCN(S(=O)(=O)c2cccc([N+](=O)[O-])c2)CC1 | inactive: 11.4%
9 | O=C(CN1C(=O)NC2(CCCC2)C1=O)Nc1cccc(Cl)c1 | inactive: -13.3%
10 | Cc1cc(=O)[nH]c2sc(C(=O)N3c4ccccc4CC3C)c(N)c12 (stereo not drawn) | inactive: 8.42%
11 | COc1ccc(C(=O)N/N=C/c2ccc3cccc(O)c3n2)cc1 | inactive: 4.26%
12 | CC(C)(C)C1CCc2oc3ccc(NS(=O)(=O)c4cc(Cl)ccc4Cl)cc3c2C1 (stereo not drawn) | inactive: 10.8%
13 | COc1ccc(NC(=O)COC(=O)CCc2ccccc2)c(OC)c1 | inactive: 18.3%
14 | Cc1nnc(SCC(=O)c2ccc(Cl)cc2)s1 | inactive: -0.824%
15 | COc1cc(/C=C/C(=O)Nc2ccc(C(C)=O)cc2)cc(OC)c1OC | inactive: -6.17%
16 | C=CCn1c(SCC(=O)NC(=O)Cc2ccccc2)nnc1-c1ccccc1F | inactive: 2.13%
17 | O=C(c1cc2c(=O)n3ccccc3nc2s1)N1CCN(Cc2ccccc2)CC1 | inactive: 7.7%
18 | C[N+](C)(CC#Cc1ccccc1)CC(=O)c1ccccc1 | inactive: -1.81%
19 | COc1ccc(CN(C)C2c3ccccc3-c3ccccc32)cc1 | inactive: -0.346%
20 | O=C(COc1ccc2c(-c3ccccc3)cc(=O)oc2c1)NCc1cccs1 | inactive: 10.4%
21 | CCc1ccc2c(COC(=O)CNS(=O)(=O)c3ccc(NC(C)=O)cc3)cc(=O)oc2c1 | inactive: 12.4%
22 | COc1ccc(C(=O)COC(=O)c2n[nH]c3ccccc23)c(OC)c1 | inactive: 2.04%
23 | Cc1ccc(OCC(=O)NCCNC(=O)c2ccc(C)nc2)cc1 | inactive: -14.2%
24 | Cc1nc2ccc(S(=O)(=O)NCC(=O)NCCN3CCCCCC3)cc2s1 | inactive: -26.8%
25 | O=C(Nc1ccc(C(=O)O)cc1)/C(=C\c1ccc2c(c1)OCO2)NC(=O)c1ccccc1 | inactive: -7.76%
26 | O=C(c1ccc(-c2ccc([N+](=O)[O-])cc2Cl)o1)N1CCOCC1 | inactive: 7.46%

Row | SMILES | growth rescue (activation)
27 | COc1ccc(-c2cc(NC=O)c3ncc(-c4cccc(C(=O)N(C)C)c4)n3c2)cn1 | inactive: -2.38%
28 | CC(=O)c1ccc(NC(=O)CSc2nc3[nH]c(=O)cc(O)c3s2)cc1 | inactive: -7.59%
29 | COc1ccc(NC(=O)C2CC(=O)N(C(C)C)C2)cc1 (stereo not drawn) | inactive: 3.79%
30 | Cc1c(NC(=S)SCc2ccccc2)c(=O)n(-c2ccccc2)n1C | inactive: -6.06%
31 | CC(NC(=O)COC(=O)c1ccc2c(c1)OCCO2)c1ccccc1 (stereo not drawn) | inactive: -36.3%
32 | CC1CN(S(=O)(=O)c2cccc(C(=O)OC/C(O)=C(\C#N)c3nc4ccccc4[nH]3)c2)CC(C)O1 (stereo not drawn) | inactive: -6.1%
33 | CCC(=O)N(Cc1cc2cc(OC)ccc2[nH]c1=O)c1ccc(C)cc1 | inactive: -6.29%
34 | O=C(Nc1cc(C(F)(F)F)ccc1Cl)c1cccnc1 | inactive: 10.3%
35 | CC(O)(c1cccc(F)c1)c1nc(/C=C/c2ccccc2)cs1 (stereo not drawn) | inactive: -0.41%
36 | Cc1ccc(OCCn2cc(/C=C(\C#N)C(=O)NCC3CCCO3)c3ccccc32)cc1 (stereo not drawn) | inactive: 7.38%
37 | CCCC(=O)Nc1ccc2c(c1)nc(CCNC(=O)c1ccco1)n2C | inactive: -7.12%
38 | Cc1cc2nsnc2c(S(=O)(=O)N2CCN(C)CC2)c1C | inactive: -5.61%
39 | CC(C)C(NC(=O)c1c(F)cccc1F)C(=O)N1CCN(c2ccccc2F)CC1 (stereo not drawn) | inactive: -2.81%
40 | CC(=O)c1cnc(Nc2ccc(C)cc2)s1 | inactive: 19.1%
41 | COc1cc(Cl)c(C)cc1NC(=O)Cn1c(NCCO)nc2ccccc21 | inactive: -10.1%
42 | COc1cccc(-c2cc3nc(NCc4ccc5occc5c4)n(C)c(=O)c3s2)c1 | inactive: 4.14%
43 | Cc1ccnc(NC(=O)c2ccco2)n1 | inactive: -8.91%
44 | O=C(COc1ccc(Cl)cc1)NCCCNC(=O)c1ccccn1 | inactive: -2.28%
45 | COc1ccc(Nc2ccc(N3C(=O)CC(C)C3=O)cc2[N+](=O)[O-])cn1 (stereo not drawn) | inactive: 8.62%
46 | NC(=O)c1ccc(NC(=O)COc2ccc([N+](=O)[O-])cc2Cl)cc1 | inactive: -1.2%
47 | CCNC(=O)Nc1ccc(S(=O)(=O)Nc2cnc(C)nc2C)cc1 | inactive: -4.92%
48 | COc1ccc(/C=C(/NC(=O)c2cccs2)C(=O)NCc2ccco2)cc1OC | inactive: -1.49%
49 | CCCn1c(N)c(N(CCOC)C(=O)c2ccc([N+](=O)[O-])c(C)c2)c(=O)[nH]c1=O | inactive: -36.7%
50 | COc1cccc(CC(NC(C)=O)C(=O)NC2CCN(S(=O)(=O)c3ccc(NC(C)=O)cc3)CC2)c1OC (stereo not drawn) | inactive: -6.95%
51 | Cc1nnc(SCc2cc(=O)[nH]c(/N=C(\N)Nc3ccccc3)n2)s1 | inactive: 5.97%
52 | COC(=O)c1c(NC(=O)C2CC=CCC2C(=O)O)sc(C(N)=O)c1C (stereo not drawn) | inactive: 13.6%

Row | SMILES | growth rescue (activation)
53 | O=S(=O)(c1ccc(N=C2NN=C(c3cc(F)ccc3F)CS2)cc1)N1CCOCC1 | inactive: 12.2%
54 | COc1ccc(CCN=C(N)Nc2nc(C)cc(C)n2)cc1 | inactive: 1.72%
55 | CCc1nc2ccc(C(=O)NCCNC(C)=O)cn2c1N(CC)CCOC | inactive: 13.4%
56 | Cc1cc(C)cc(NC(=O)c2c(C)nc3ccccn23)c1 | inactive: 14.3%
57 | COc1cccc(-n2c([S-])c(C(=O)Nc3ccc(S(=O)(=O)N4CCOCC4)cc3)[n+]3cc(C(N)=O)ccc23)c1 | inactive: 10.1%
58 | CCCN(c1ccccc1CC)S(=O)(=O)c1ccc2c(c1)CC(C)N2C(=O)C1CC1 (stereo not drawn) | inactive: -2.32%
59 | NC(=O)c1ncc(C(F)(F)F)cc1Cl | inactive: -7.94%
60 | CC12CCC(=O)N1C(C(=O)OCC(=O)Nc1ccc(S(N)(=O)=O)cc1)CS2 (stereo not drawn) | inactive: 2.02%
61 | Cn1c(Cl)cnc1C1CC(=O)c2cc(Cl)ccc2O1 (stereo not drawn) | inactive: -77%
62 | CC(=O)N1CCN(c2ccc(NC(=O)c3ccccc3Cl)cc2)CC1 | inactive: -2.94%
63 | Cc1ccc(S(=O)(=O)NCC(=O)OCC(=O)N2CC(=O)Nc3ccccc32)cc1 | inactive: -10.1%
64 | COc1ccc(/C=C\c2onc(C)c2S(=O)(=O)N2CCC(C(=O)NCc3ccco3)CC2)cc1 | inactive: 7.74%
65 | CNC(=O)/C(C#N)=C\c1ccc(CNS(=O)(=O)c2ccccc2)o1 | inactive: -17.4%
66 | COc1cc2ccccc2cc1C(=O)NC(=S)Nc1nnn(C)n1 | inactive: 5.57%
67 | O=C(COc1ccc(Cl)cc1Cl)NN1C(=O)C2C3C=CC([C@@H]2C1=O)C31CC1 (stereo partly drawn) | inactive: -6.67%
68 | CC(=O)Oc1ccc(/C=N/NC(=O)c2ccc(N(C)S(=O)(=O)c3ccccc3)cc2)cc1 | inactive: -0.0905%
69 | CC(C)(CCO)Nc1ncnc2onc(-c3ccc(F)cc3)c12 | inactive: -4.41%
70 | Nc1cc(Cl)nc(N/N=C/c2ccc([N+](=O)[O-])cc2)n1 | inactive: -26.3%
71 | CC(C)(O)C#Cc1ccc([C@@H]2C[C@H]3CN(c4ccccc4)C(=O)[C@]34CCCN24)s1 | inactive: -3.38%
72 | CC(NC(=S)NCc1ccccc1)C12CC3CC(CC(C3)C1)C2 (stereo not drawn) | inactive: 6.45%
73 | Cc1ccc(OCc2cnc(Cl)s2)c(C)c1 | inactive: 12.1%
74 | COc1ccc(NC(=O)Cn2nc(C(=O)O)c3ccccc3c2=O)cc1OC | inactive: -6.2%
75 | NC(=O)c1ccc(NC(=O)COC(=O)CC(NC(=O)c2ccccc2Cl)c2ccccc2)cc1 (stereo not drawn) | inactive: 8.21%
76 | O=C(NCc1cccs1)C1CCCN(C(=O)Nc2ccccc2)C1 (stereo not drawn) | inactive: 1.03%
77 | CN(C(=O)COC(=O)c1cc(=O)[nH]c2ccccc12)c1ccccc1 | inactive: 6.7%
78 | CC(C)(C)Cc1nnc(NC(=O)c2ccc3c(c2)OCO3)s1 | inactive: 8.11%

Row | SMILES | growth rescue (activation)
79 | O=C(NC(=S)N1CCN(Cc2ccccc2)CC1)c1cccnc1 | inactive: 6.91%
80 | CCOCC(=O)Nc1ccc(OCc2ccccc2)cc1 | inactive: 15.6%
81 | Cn1ccnc1SCCNC(=O)CCc1nnc(CCc2ccccc2)o1 | inactive: -5.05%
82 | CC1(C(=O)Nc2cccc3c2CCCC3)CCN1C(=O)CCc1ccc(Cl)cc1Cl (stereo not drawn) | inactive: 22.2%
83 | Cc1cccc(N(C(=O)c2csnn2)C(C(=O)NCc2ccccc2)c2cccs2)c1 (stereo not drawn) | inactive: 9.56%
84 | Cc1cccc2sc(NC(=O)Cn3c(C)csc3=O)nc12 | inactive: -2.97%
85 | COc1ccc(OC)c(-n2c(SCC(=O)Nc3cccc(S(N)(=O)=O)c3)nc3ccccc3c2=O)c1 | inactive: 8.71%
86 | COc1ccccc1N1CCN(C(=O)CN(C)S(=O)(=O)c2ccc3c(c2)c(=O)n(C)c(=O)n3C)CC1 | inactive: 3.73%
87 | O=C(COc1ccc(Cl)cc1)NC(=S)Nc1ccccc1N1CCOCC1 | inactive: 32%
88 | CC1COc2ccccc2N1C(=O)c1cccnc1Cl (stereo not drawn) | inactive: 12.4%
89 | O=C(Cc1cccs1)N/N=C/C=C/c1ccco1 | inactive: 0.619%
90 | Cc1ccc(NC(=O)/C(C#N)=C/c2ccc(C)o2)cc1 | inactive: 29.4%
91 | Cc1ccc(Cn2cc(/C=N/Nc3ccc([N+](=O)[O-])cn3)c3ccccc32)cc1 | inactive: 9.71%
92 | COc1ccc(NC(=O)CSc2sc3c(O)cc(=O)[nH]c3c2C#N)c(OC)c1 | inactive: 6.94%
93 | COc1ccc(S(=O)(=O)N2CCCCC2)cc1NC(=O)CN1CCN(C(C)=O)CC1 | inactive: 14.6%
94 | Cc1cc(NC(=O)c2cccc([N+](=O)[O-])c2)n(-c2ccccc2)n1 | inactive: 19.9%
95 | COCCCNc1nc(N)c([N+](=O)[O-])c(NCC2CCCO2)n1 (stereo not drawn) | inactive: -3.55%
96 | Cc1ccc(/C=C/C(=O)Nc2nnc(SCc3ccc(C#N)cc3)s2)o1 | inactive: 22.3%
97 | CCOC(=O)C1(Cc2ccccc2C)CCCN(C(=O)CSC)C1 (stereo not drawn) | inactive: 18.1%
98 | COCc1cc(C)nc(SCC(=O)Nc2nc(C)cs2)c1C#N | inactive: 23.3%
99 | CC(C)(C)N(Cc1ccccc1)C(=O)COC(=O)CCc1c[nH]c2ccccc12 | inactive: 18.6%
100 | Cc1ccc(NS(=O)(=O)c2ccc(C)c(NC(=O)COc3ccc4ccccc4c3)c2)c(C)c1 | inactive: 12.7%
101 | CC(C)CC(C(=O)NC1CCCCC1)N(Cc1ccccc1)C(=O)c1snc(C(N)=O)c1N (stereo not drawn) | inactive: -18%
102 | COc1ccc(NC(=O)C2C3C=CC4(O3)C2C(=O)N(CCCN2CCCCC2)C4C(=O)NC2CCCC(C)C2C)cc1 (stereo not drawn) | inactive: -27%
103 | Cc1ccc(S(=O)(=O)N2CCN(C(=O)CNC(=O)c3ccc(Cl)cc3)CC2)cc1 | inactive: -25.6%
